Source: PubChem BioAssay AID588591 (National Center for Advancing Translational Sciences (NCATS), 2011)
The campaign covered roughly 390,000 compounds. About 4,700 (1.2%) were called active. This list was built around the results that the source calls inconclusive (neither active nor inactive); the mix of calls is not that of the screen. The call rests on the fitted dose curve; in most records, active means well fitted inhibition curve with a large enough effect; inconclusive means small, poorly fitted or top-dose-only effect, or another doubt; inactive means no such curve, though single readings can be large or run the other way. Where the call is inconclusive, the potency comes from a doubtful curve fit.

Each compound was assayed against DNA polymerase eta (Homo sapiens) (UniProt Q9Y253) (assay: qHTS for Inhibitors of Polymerase Eta). Conditions: recombinant Pol eta, fluorescent DNA replication assay; series mostly up to 114 µM; activity change, negative = inhibition: at the top concentration.
Chain of UniProt Q9Y253 (Q9Y253 whole entry, looked up): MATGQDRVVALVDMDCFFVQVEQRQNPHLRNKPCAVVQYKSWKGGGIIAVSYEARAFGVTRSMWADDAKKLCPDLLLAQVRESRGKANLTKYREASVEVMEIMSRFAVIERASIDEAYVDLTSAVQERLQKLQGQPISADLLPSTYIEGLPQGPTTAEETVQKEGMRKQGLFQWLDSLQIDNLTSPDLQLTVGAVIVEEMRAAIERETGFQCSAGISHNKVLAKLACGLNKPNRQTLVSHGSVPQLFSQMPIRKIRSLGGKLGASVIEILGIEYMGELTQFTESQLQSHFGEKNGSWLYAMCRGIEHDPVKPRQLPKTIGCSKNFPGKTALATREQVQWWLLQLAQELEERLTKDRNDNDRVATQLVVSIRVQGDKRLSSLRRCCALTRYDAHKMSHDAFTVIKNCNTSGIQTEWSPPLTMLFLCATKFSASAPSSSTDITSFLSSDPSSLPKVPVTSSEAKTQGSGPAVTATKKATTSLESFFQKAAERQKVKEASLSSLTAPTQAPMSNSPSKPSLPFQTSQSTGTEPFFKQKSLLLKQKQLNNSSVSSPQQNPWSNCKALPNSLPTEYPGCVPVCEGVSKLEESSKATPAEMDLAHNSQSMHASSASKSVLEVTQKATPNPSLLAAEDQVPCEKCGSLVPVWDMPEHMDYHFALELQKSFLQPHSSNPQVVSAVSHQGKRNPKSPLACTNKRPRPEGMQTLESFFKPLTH
In short: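 Fluorescent replication assay: 50 nM final substrate added after a 15 min room-temperature compound preincubation with 10 nM enzyme. Signal taken at 0 min and again at 10 min.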
On the % scale 0 is the no-effect control and ±100 the full control effect; potency means the concentration at half of the fitted maximal effect; tags describe the fitted curve by direction and shape.

| SMILES | activity change, negative = inhibition | Potency |
| --- | --- | --- |
| O=S(=O)(c1ccccc1C(F)(F)F)N1CCN(CC(O)COc2ccccc2F)CC1 (stereo not drawn) | inactive: -11.5% | – |
| CC1=CC(C)(C)Nc2ccc(OC(=O)CCN3C(=O)c4ccccc4C3=O)cc21 | – | inconclusive: 79.4 µM [inhibitor, partial curve, poor fit] |
| CC(=O)Nc1ccc(C(=O)CSc2cc(C)c3cccc(C)c3n2)cc1 | – | inconclusive: 79.4 µM [inhibitor, partial curve, poor fit] |
| C/C(=N/Nc1ccc(C(=O)O)cc1)c1ccc(O)c(O)c1O | – | inconclusive: 39.8 µM [inhibitor, partial curve, poor fit] |
| N#CC(C(O)c1ccccc1)N1CCOCC1 (stereo not drawn) | inactive: -5.44% | – |
| CC(=O)c1cc(O)c2ccccc2c1O | – | active: 89.1 µM |
| COC(=O)c1cccc(NC(=O)/C=C/c2ccc3c(c2)OCO3)c1 | – | inconclusive: 0.708 µM [inhibitor, partial curve, poor fit] |
| COc1ccc(OC)c(C(=O)CSc2nnc(Cc3cccs3)n2CCc2ccccc2)c1 | – | inconclusive: 79.4 µM [inhibitor, partial curve, poor fit] |
| Cc1ccc(Cl)c2c1N[C@@H](c1ccc(C(=O)O)cc1)[C@H]1CC=C[C@@H]21 | – | inconclusive: 100 µM [inhibitor, single point] |
| CCn1c(=O)oc2cc(NC(=O)CCl)ccc21 | inactive: -16.2% | – |
| O=C(COC(=O)CNC(=O)c1ccc([N+](=O)[O-])o1)Nc1ncc(Cl)cc1Cl | – | inconclusive: 20 µM [inhibitor, full curve, poor fit] |
| CCOC(=O)c1c(C)n(-c2ccccc2)c2ccc(OC(=O)c3ccccc3)cc12 | inactive: -9.44% | – |
| Cc1cccc(-c2noc(CN(C(=O)COc3ccc(C(C)C)cc3)C(C)C)n2)c1 | – | inconclusive: 89.1 µM [inhibitor, partial curve, poor fit] |
| COc1ccc(C2=NS(=O)(=O)N(C)C(C(=O)Nc3cc(C)ccc3O)=C2)cc1OC | – | inconclusive: 70.8 µM [inhibitor, partial curve, poor fit] |
| O=C(Nc1ccc2nc(-c3ccc4nc[nH]c4c3)[nH]c2c1)c1cccs1 | – | active: 20 µM |
| CN(C)c1ccc(/C=C/c2ccc3ccccc3[n+]2C)cc1 | – | inconclusive: 15.8 µM [inhibitor, full curve] |
| COc1cccc(/C=C/C(=O)OCC(=O)NCc2ccco2)c1 | – | inconclusive: 17.8 µM [inhibitor, partial curve, poor fit] |
| Cc1cccc(C(=O)N=c2c(C#N)cc3c(=O)n4cccc(C)c4nc3n2Cc2ccco2)c1 | – | active: 4.47 µM |
| O=C(NCc1ccco1)c1ccc(=O)oc1 | – | inconclusive: 22.4 µM [inhibitor, partial curve] |
| Cc1ccc2c(c1)-c1nc(-c3ccc(Cl)cc3)cc(-c3coc4ccccc4c3=O)c1CO2 | inactive: -12.2% | – |
| CC(C)=CCCC1=CCC(/C(C)=N/NC(N)=O)CC1 (stereo not drawn) | – | inconclusive: 3.55 µM [inhibitor, partial curve, poor fit] |
| O=C(CSc1ncnc2sc3c(c12)CCC3)N1CCOCC1 | – | active: 35.5 µM |

| SMILES | activity change, negative = inhibition | Potency |
| --- | --- | --- |
| O=C1c2cccc3c(N4CCCCC4)ccc(c23)C(=O)N1c1ccc(O)cc1 | – | inconclusive: 89.1 µM [inhibitor, partial curve] |
| COc1cccc(-n2nc(C#N)c(Cl)cc2=O)c1 | – | inconclusive: 56.2 µM [inhibitor, partial curve, poor fit] |
| COc1ccc(/C=N/NC(=O)c2cc(-c3cccn3C)n[nH]2)cc1OC | – | inconclusive: 15.8 µM [inhibitor, partial curve, poor fit] |
| COc1ccccc1NCCC(=O)OCC(=O)NCc1ccco1 | – | active: 5.62 µM |
| CCN(C(=S)Nc1cccc2ccccc12)c1ccccc1 | inactive: -3.53% | – |
| CS(=O)(=O)N1N=C(c2ccccc2)CC1c1ccc2c(c1)OCO2 (stereo not drawn) | – | active: 31.6 µM |
| COc1cc([N+](=O)[O-])cc(/C=C2/SC(=S)N(Cc3ccccc3)C2=O)c1O | – | inconclusive: 56.2 µM [inhibitor, partial curve, poor fit] |
| Cc1c(C(=O)N2CCc3ccccc32)oc2ccccc12 | inactive: -12.3% | – |
| O=C1OC(c2ccccc2)(c2ccc3cc(O)ccc3c2)c2ccccc21 (stereo not drawn) | – | inconclusive: 50.1 µM [inhibitor, partial curve, poor fit] |
| Cn1ccnc1SCC(=O)c1ccc(C#N)cc1 | inactive: -17.6% | – |
| COc1ccc(N(Cc2ccccc2)C(=O)c2ccccc2[N+](=O)[O-])cc1 | – | inconclusive: 89.1 µM [inhibitor, partial curve, poor fit] |
| COc1cc(CCC(=O)OCC(=O)NC2CCCC(C)C2C)cc(OC)c1OC (stereo not drawn) | – | inconclusive: 44.7 µM [inhibitor, partial curve, poor fit] |
| C#CCOc1ccc(C2C(C(=O)OC)=C(C)NC3=C2C(=O)c2ccccc23)cc1OCC (stereo not drawn) | inactive: -15% | – |
| Cc1sc(NC(=O)C2CSC3(C)CCC(=O)N23)nc1-c1ccccc1 (stereo not drawn) | – | inconclusive: 89.1 µM [inhibitor, partial curve, poor fit] |
| O=C(NCC(c1ccc(F)cc1)N1CCOCC1)c1ccc(OCc2ccccc2)cc1 (stereo not drawn) | – | inconclusive: 79.4 µM [inhibitor, partial curve, poor fit] |
| Cc1ccc(-c2noc(-c3cccnc3NCc3ccc(Cl)cc3)n2)cc1 | inactive: -18.7% | – |
| CC(=O)c1c(C)[nH]c(C(=O)OCC(=O)c2ccc3c(c2)NC(=O)CO3)c1C | – | inconclusive: 25.1 µM [inhibitor, full curve] |
| O=C(Nc1ccc(-c2nc3ccc(NC(=O)c4cccs4)cc3[nH]2)cc1)c1cccs1 | – | inconclusive: 10 µM [inhibitor, full curve, poor fit] |
| CS(=O)(=O)N(Cc1ccc(Cl)cc1)c1ccc(C(=O)NCCSCc2ccco2)cc1 | – | inconclusive: 14.1 µM [inhibitor, partial curve, poor fit] |
| COc1ccc(NC(=O)Cc2ccccc2)cn1 | inactive: -11.5% | – |
| CCC1(CC)SCCNC1=O | – | inconclusive: 79.4 µM [inhibitor, partial curve, poor fit] |
